# This is one part of the list.
# B1: FimA-N1 (Actinomyces oris) (protein)
# chain: MHHHHHHSSGVDLGTENLYFQSNATETPNYGNIKTDATGSLVIHKHLTGGGKDIGTPTGTAQNADDKGPAVEGVVFTAYPITDINLKDPAGWDTISNLSRTGVPDSACANPAAPTLGAHQFGTPKVSPATTKEGLATITEMPVQAYLVCETTTPGDIVQKAKPFVVTIPHPNTAAGADGQWIYDVNVYPKNEAIDVDKTIQAQK
# Columns and labels:
# Assay in all cases: glycan array binding signal (z-score within array); higher = stronger binding
# Conditions in all cases: glycan notation: IUPAC condensed, linker removed
# [1] = target: Neu5Ac(a2-8)Neu5Ac
# In short: (§1)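 The binding signal is a Z-score computed within each array. Data were drawn from 3228 arrays in the Consortium for Functional Glycomics database, restricted to those with a known protein sequence. Scores were averaged over arrays of the same protein sequence at different concentrations or buffers, and over linkers, and negative values can be taken as non-binding.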
# [2] = target: Neu5Ac(a2-8)Neu5Ac(a2-3)Gal(b1-3)GalNAc(b1-4)[Neu5Ac(a2-3)]Gal(b1-4)Glc
# In short: as §1
# [3] = target: Neu5Ac(a2-8)Neu5Ac(a2-3)Gal(b1-3)GalNAc(b1-4)[Neu5Ac(a2-8)Neu5Ac(a2-3)]Gal(b1-4)Glc
# In short: as §1
# [4] = target: Neu5Ac(a2-8)Neu5Ac(a2-3)Gal(b1-4)Glc
# In short: as §1
# [5] = target: Neu5Ac(a2-8)Neu5Ac(a2-3)Gal(b1-4)GlcNAc
# In short: as §1
# [6] = target: Neu5Ac(a2-8)Neu5Ac(a2-3)[Gal(b1-3)GalNAc(b1-4)]Gal(b1-4)Glc
# In short: as §1
# [7] = target: Neu5Ac(a2-8)Neu5Ac(a2-3)[GalNAc(b1-4)]Gal(b1-4)Glc
# In short: as §1
# [8] = target: Neu5Ac(a2-8)Neu5Ac(a2-8)Neu5Ac
# In short: as §1
# [9] = target: Neu5Ac(a2-8)Neu5Ac(a2-8)Neu5Ac(a2-3)Gal(b1-4)Glc
# In short: as §1
# [10] = target: Neu5Ac(a2-8)Neu5Ac(a2-8)Neu5Ac(a2-3)[Gal(b1-3)GalNAc(b1-4)]Gal(b1-4)Glc
# In short: as §1
# [11] = target: Neu5Ac(a2-8)Neu5Ac(a2-8)Neu5Ac(a2-3)[GalNAc(b1-4)]Gal(b1-4)Glc
# In short: as §1
# [12] = target: Neu5Ac(a2-8)Neu5Ac(a2-8)Neu5Ac(a2-8)Neu5Ac(a2-3)[GalNAc(b1-4)]Gal(b1-4)Glc
# In short: as §1
# [13] = target: Neu5Ac(a2-8)Neu5Gc(a2-3)Gal(b1-4)GlcNAc
# In short: as §1
# [14] = target: Neu5Ac(b2-6)Gal(b1-4)GlcNAc
# In short: as §1
# [15] = target: Neu5Ac(b2-6)GalNAc
# In short: as §1
# [16] = target: Neu5Ac9Ac(a2-3)Gal(b1-3)GlcNAc
# In short: as §1
# [17] = target: Neu5Ac9Ac(a2-3)Gal(b1-4)GlcNAc
# In short: as §1
# [18] = target: Neu5Ac9Ac(a2-6)Gal(b1-4)GlcNAc
# In short: as §1
# [19] = target: Neu5Gc(a2-3)Gal(b1-3)GlcNAc
# In short: as §1
# [20] = target: Neu5Gc(a2-3)Gal(b1-3)[Fuc(a1-4)]GlcNAc
# In short: as §1
# [21] = target: Neu5Gc(a2-3)Gal(b1-4)Glc
# In short: as §1
# [22] = target: Neu5Gc(a2-3)Gal(b1-4)GlcNAc
# In short: as §1
# [23] = target: Neu5Gc(a2-3)Gal(b1-4)GlcNAc(b1-3)Gal(b1-4)GlcNAc(b1-2)Man(a1-3)[Neu5Gc(a2-3)Gal(b1-4)GlcNAc(b1-3)Gal(b1-4)GlcNAc(b1-2)Man(a1-6)]Man(b1-4)GlcNAc(b1-4)GlcNAc
# In short: as §1
# [24] = target: Neu5Gc(a2-3)Gal(b1-4)[Fuc(a1-3)]GlcNAc
# In short: as §1
# [25] = target: Neu5Gc(a2-6)Gal(b1-4)GlcNAc
# In short: as §1
# [26] = target: Neu5Gc(a2-6)GalNAc
# In short: as §1
# [27] = target: Neu5Gc(a2-8)Neu5Ac(a2-3)Gal(b1-4)GlcNAc
# In short: as §1
# [28] = target: Neu5Gc(a2-8)Neu5Gc(a2-3)Gal(b1-4)GlcNAc
# In short: as §1
# [29] = target: Neu5Gc(a2-8)Neu5Gc(a2-3)Gal(b1-4)GlcNAc(b1-3)Gal(b1-4)GlcNAc
# In short: as §1
# [30] = target: Neu5Gc(a2-8)Neu5Gc(a2-6)Gal(b1-4)GlcNAc
# In short: as §1
# [31] = target: Neu5Gc(b2-6)Gal(b1-4)GlcNAc
# In short: as §1
binder,measurement,setting,value
B1,glycan array binding signal (z-score),[1],-0.132
same,glycan array binding signal (z-score),[2],-0.163
same,glycan array binding signal (z-score),[3],-0.163
same,glycan array binding signal (z-score),[4],-0.361
same,glycan array binding signal (z-score),[5],-0.208
same,glycan array binding signal (z-score),[6],-0.299
same,glycan array binding signal (z-score),[7],-0.35
same,glycan array binding signal (z-score),[8],-0.204
same,glycan array binding signal (z-score),[9],-0.363
same,glycan array binding signal (z-score),[10],-0.177
same,glycan array binding signal (z-score),[11],-0.242
same,glycan array binding signal (z-score),[12],0.066
same,glycan array binding signal (z-score),[13],-0.2
same,glycan array binding signal (z-score),[14],-0.349
same,glycan array binding signal (z-score),[15],-0.177
same,glycan array binding signal (z-score),[16],0.409
same,glycan array binding signal (z-score),[17],-0.144
same,glycan array binding signal (z-score),[18],-0.256
same,glycan array binding signal (z-score),[19],-0.089
same,glycan array binding signal (z-score),[20],-0.09
same,glycan array binding signal (z-score),[21],0.004
same,glycan array binding signal (z-score),[22],-0.11
same,glycan array binding signal (z-score),[23],0.271
same,glycan array binding signal (z-score),[24],-0.068
same,glycan array binding signal (z-score),[25],-0.072
same,glycan array binding signal (z-score),[26],-0.069
same,glycan array binding signal (z-score),[27],-0.25
same,glycan array binding signal (z-score),[28],-0.497
same,glycan array binding signal (z-score),[29],-0.196
same,glycan array binding signal (z-score),[30],-0.334
same,glycan array binding signal (z-score),[31],-0.298
